# Laboratory results taken from the RNAGym collection of RNA variant scans (doi:10.7554/elife.90254).
# The source gives no read counts; variants with many changes may rest on few reads.
# B1: OR4K15 (parent)
# chain: GUUAACGGUCAUAGGCCAUGGAAACUAGGAGCACCAUUUCGCUGCCAGUGAAGAAAUGAACAAAGAAAAUCUGGGCCAGGCAGGCAUCAAAAGAAAUAGUCUUGCGCUCAACCAGAAAGUCUGUAAUCAUUUUAAGGGUA
# Variants of: B1
# Experiment: self-cleavage, relative activity (ratio to wild type); higher = more cleavage; in vitro, sequencing; the parent is a self-cleaving ribozyme
row,Variant,self-cleavage
1,U19C A82G A92U,0.43
2,A5G A54G U102A,0.42
3,U19C U37C A110U,1.37
4,A52G A92G U102C U108C A140G,0
5,A51U A78U A94G,0.36
6,G14A A51U A78U A95G U120C,0.29
7,A60U A62G U103C,1.18
8,A59U A60G A68G,1.82
9,A36G A66G U130C,1.32
10,A11G U57C G119A,1.27
11,U12C A67G U72A A82G A118G,0.08
12,A22U A86U A96G U100C,0.64
13,A23U A78G A117U,0.15
14,C35U A56G A64G U72C A118G,0.05
15,A23G A56G A95C,1.24
16,A67G A82G A90G U108C A111G,0
17,A33U U39C G41U A96G U103A U132C,0.57
18,A22G A30G U57A A116G,0.23
19,A5G A11U A36G,1.52
20,U9A A66G A96G,1.25
21,U37G A60G A68G U132C,0.17
22,A22G U57C A114U,0.06
23,U2C A23G A47G A67U,1.34
24,U12C U49C A90G U133A,0.29

row,Variant,self-cleavage
1,U9A A55G G75A A89U A129G,0.17
2,A5G A56G U87A U132C,0.51
3,U2C U3C A60G A111G,0.07
4,U38C A67U A111G U122C,0.06
5,A59G U100A A111G C121U,0.01
6,A27G A56G A86U A89G A126G,1.35
7,A51U A54G A55G A69G U103C,1.18
8,A51G A59G A118G,0.64
9,U9C A22G A78G,0.3
10,A24C A90G A118G A140G,0.25
11,A4G A18G U19C A33G A92G A95G U130C,0.81
12,U3C A13U U38C A64G U120C,1.13
13,A4G A68G A69G A91U U133C,1.82
14,G41A U57A A60G A92G U139C,0.53
15,A63G A86G U87C A117G U130C,0.59
16,C6A U122G U132C,2
17,A33G A56C U57C A67G U100C A114U U122C U132C,0.01
18,A64G A95G U139G A140U,2.76
19,A24C U38C U43A A67C A95G,1.86
20,U19A C45A A68G A126G,1.21
21,U57C G93A C109A,0.15
22,A94G A126G U130C,0.53
23,A11G U39C A68G U122A,1.47
24,A23G A67G U108A,0.01

row,Variant,self-cleavage
1,U9C A47U A67G,0.65
2,A62G U102C U124C,0.61
3,C10U A36U U122C G138A,0.64
4,U19C A22G A55G A66G A111G U127A,0.05
5,A55G A94U U97C U139C,1.51
6,A89G A94G U133A,1.57
7,U2C A64G A69G,0.17
8,A23G A60U A67G,0.94
9,A18U A60G A117G,1.55
10,A52G A86G U87C,1.27
11,U2C U19C U37A A89G U97C,1.39
12,A60G A78G U103C A116G,0.04
13,U39C A78G U130C,0.17
14,A30G C61U U122C,1.49
15,U19C U43C U87C A114G A117G A126G,0.07
16,A22G A66G C113A,0.04
17,U70C A95G U100C A129U,0.43
18,A22U A68G A98G A114G,0.15
19,A62G G75A C112U,0
20,U43C A51G A69G A116G,0.39
21,U3C U38C A55C A66G U70C U102A U133C,0.16
22,A5G A23G A90G U130C,0.36
23,A89G A117U U131C A140G,1.24
24,A33G A56G A68G A78U A92G,0.03

row,Variant,self-cleavage
1,U9A A51U A78G A89G,0.12
2,A54G A90G U131C,1.66
3,A82U G104U U108C A111G,0
4,A56G A69G U87C A116G,0.22
5,U57C U70A A94G U108C A117G,0
6,G80A A111G U131C,0
7,A30G A66G A86G U120C U133A,1.43
8,A4G A67G A92G U120C,1.16
9,G7U A47G G80C A96G,0.12
10,U39A G75C A94G U132A,0.1
11,A18U A68G U130C A140G,0.21
12,U2C A22U A78G,0.28
13,A5G U72A U100C,0.77
14,A11U A67G A117G,2.45
15,A30G C105U A129G,0.13
16,U39A A82G A118C,0.27
17,A59G A114G U122C A134G,0.18
18,U2C U38C U70C A95G A140G,0.83
19,A5G U72C A94G U139C,0.07
20,U37C A55G U70A U102C A116G,1.66
21,U2C U9A C34U A60G U87C U100A,0.57
22,U12C A52G A116G,0.39
23,G44A U57C A91G,0.34
24,A52G A60G U130C,0.65

row,Variant,self-cleavage
1,U2C U3G U122C U132C,0.47
2,U43C A59G U139G,1.38
3,C6U A18U U38C A52U G74A A98G,0.17
4,A54G U87C A92U,1.85
5,A52G A94G A110G,0.18
6,A23U A30G A90G,0.82
7,A5G U19C U43A,1.15
8,A24G A82C A96C,0.07
9,A11U A89G U100C U132C,2.07
10,A62G A116G U130C,0.13
11,A47G A89U U102C U103C,0.14
12,A24U U122C U127A,0.43
13,A18U A33C C34U,0.64
14,A27U A30G A33U A78U,0.55
15,U72C A78G U103C,0.1
16,U87C A94G A111G,0.02
17,A22G A55G U70C,1.33
18,U2C A30G A82G,0.45
19,A18G A55G A78G A110G,0.11
20,U19A A55G A94G,0.47
21,A23G G50U A67G A92G U127A,2.03
22,A54G A66U A94U U108C A117G G123A,0
23,C32U A47G A89U,2.31
24,A54G C109U U124C,0.23

row,Variant,self-cleavage
1,A18U A22G A24G A78U U103C,0.12
2,A11G A55G A60G,0.85
3,A33G A60G A68G,0.54
4,A22U A66G U87C,1.02
5,A24G A86G U87C A110U U139C,0.31
6,A96G U130C U132C,2.23
7,U49C U57A A78U,0.19
8,C17U A62G A89G,1.23
9,U26A U39C A78U A89U A94C A96U U127C,0.04
10,A82U A89G A111G,0.01
11,A51G A62G U108A U132C,0
12,U70C A90G A135G,1.85
13,U37C A60G G79A,0.13
14,G15C U38C U57C,0.75
15,A33U A51G A56G U130C,0.99
16,U39A G50A A95C,1.21
17,A36G C71A U120A,0.22
18,U9C A27U A96G U103A A117G,1.19
19,A69G U100C A110G,0.27
20,G8A A64U G115A,0.28
21,A89G A92G A114G,0.2
22,A66G A94G U102C,1.8
23,U39C U102C A140G,2.77
24,U9C U72C U102C,0.38

row,Variant,self-cleavage
1,A64U C81U U108C,0.01
2,A23G A30G U132C G136A,1.3
3,U70C U132C A135G,0.56
4,A54G A67G U130C,1.16
5,A36C A54G A55G,1.18
6,A30G U49G U70C,0.65
7,U2C A54U A82G A86G A110U,0.07
8,A24U A30G A96G,1.78
9,G29A A59G U103C,0.49
10,A24U A36G A54G A60G A89G,1.32
11,U3A A11U A30G A94G A117U,0.64
12,A13G A33G U97C G104A G119C,0.02
13,G48A C101U U103C,0.12
14,A11G C105U G106U C109U U139C,0.02
15,A67G G75A A78U U102C U131A,0.22
16,A52G A69G U130C,0.8
17,G1A U37G A69U,1.82
18,A22U C85A U103C,0.09
19,U12G A23G G29U U49C A59U A135U,0.84
20,U38C A67G A118G U122C,0.12
21,U39A A82U A129G,0.16
22,A23G A91G U120C,0.76
23,U9C A64G A86G,1.09
